Read counts are not given, so values of variants with three or more changes are uncertain.
B1: CPEB3 Ribozyme (parent)
chain: UAACAGGGGGCCACAGCAGAAGCGUUCACGUCGCAGCCCCUGUCAGAUUCUGGUGAAUCUGCGAAUUCUGCUGUAUAUCUC

Variants of: B1
Experiment: self-cleavage, relative activity (ratio to wild type); higher = more cleavage; in vitro, sequencing
Procedure, shortened: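 Relative activity compares each variant's cleaved/total read fraction with that of the unmutated ribozyme. To get these fractions, barcoded CPEB3 ribozyme libraries from rounds of error-prone PCR were transcribed with T7 RNA polymerase for 5 hours at 37°C and then given 15 min of DNase I treatment before EDTA was added. The RNAs were reverse transcribed with template switching and sequenced on Illumina, and DNA sequencing linked barcodes to variants. A minimum of 5 reads applied, and three batches were averaged.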

Variant | self-cleavage
A64G A75U U78A | 1.07
A64G C71G U80A | 0.14
A64G G70A U78C | 0.32
A64G U66C G70A | 0.17
A64G U66C U72A | 0.21
A64G U66C U78G | 0.26
A64G U66C U80C | 0.24
A64G U67A U80C | 0.72
A64G U67C U69A | 0.18
A64G U67C U76C | 0.23
A64G U67C U78C | 0.38
A64G U67C U80C | 0.34
A64G U69C U72A | 0.22
A64G U69C U74C | 0.59
A64G U72A A77C | 0.44
A64G U72A C79A | 1.1
A64G U72A U78C | 0.95
A64G U72A U80C | 1.08
A64G U72C U78C | 0.93
A64G U74A U80C | 1.19
A64G U74C A77G | 0.96
A64U A65G U69C | 0.19
A64U A65G U72C | 0.24
A64U A65G U80A | 0.31

Variant | self-cleavage
A64U A75U A77U | 0.47
A64U G73A U80C | 0.43
A64U U66A U69A | 0.29
A64U U66A U72A U76C | 0.09
A64U U66C U72C | 0.29
A64U U66C U72G | 0.14
A64U U67C G73A | 0.24
A64U U67C U72C | 0.28
A64U U67C U80A | 0.47
A64U U69A A75G | 0.2
A64U U69C A77G | 0.42
A64U U72C U80A | 0.5
A64U U74A U80A | 0.75
A64U U74C C79U U80C | 0.59
A64U U74C U80C | 0.35
A65C A75G U80A | 0.38
A65G A75G C79U U80C | 0.41
A65G C71U U72C A75U | 0.4
A65G U66G U69C A77C U80C | 0
A65G U67A U69C | 0.32
A65G U67A U74G | 0.19
A65G U67C A75C | 0.29
A65G U67C U72A | 0.26
A65G U67C U76C | 0.27

Variant | self-cleavage
A65G U67C U80C | 0.3
A65G U67G U78C | 0.4
A65G U69C U72C A77G | 0.4
A65G U69C U78C | 0.37
A65G U72A U80C | 0.81
A65G U74A U80C | 1.03
A65G U74C U78C | 0.64
A65G U76C A77G | 0.34
A65G U76C U80A | 0.47
A65G U78A U80A | 0.68
A65U U72A U80C | 0.37
A65U U72G U78A | 0.33
A65U U76A A77G | 0.23
U66A A77G U78C | 0.27
U66A A77G U80C | 0.36
U66A C68G U72C | 0.41
U66A U67C U69C C81U | 0.2
U66A U67C U74A | 0.28
U66A U69C C71U A75G U78C | 0.23
U66A U69C G70U | 0.31
U66A U69C U76C | 0.21
U66A U72G U74A | 0.69
U66C A77G U80C | 0.39
U66C U67C A75G | 0.19

Variant | self-cleavage
U66C U67C U72C | 0.39
U66C U67C U78C | 0.26
U66C U69A A77G | 0.45
U66C U69A G70A U78C | 0.15
U66C U69A U72C U78C | 0.23
U66C U69A U76C | 0.46
U66C U69C G73A | 0.45
U66C U69C U72C | 0.32
U66C U69C U72C U80C | 0.49
U66C U69C U76A U78C | 0.26
U66C U69C U76C | 0.41
U66C U69C U78A | 0.21
U66C U72C U74C | 0.76
U66C U72C U76C | 0.47
U66C U72C U80C | 0.41
U67A C68U A77C | 0.49
U67A U74A U78C | 0.8
U67A U76A U80A | 0.72
U67C A75U U76C | 0.37
U67C C68A U69C | 0.29
U67C C68A U74A | 0.27
U67C C68A U74C | 0.4
U67C C68A U80A | 0.18
U67C C68G C81U | 0.19

Variant | self-cleavage
U67C C68U U72C | 0.31
U67C G70A U80C | 0.6
U67C G73A U80C | 0.58
U67C U69A A77U | 0.46
U67C U69A U74C | 0.42
U67C U72A U78C | 0.15
U67C U72C A75U | 0.4
U67C U72C A77U | 0.27
U67C U74A U76G | 0.44
U67C U74C A75G | 0.24
C68A A75G U76A | 0.57
C68A A75G U78C | 0.26
C68A U69C U78C | 0.35
C68G U69C U76G | 0.57
C68U U72C A75G | 0.28
U69A A75C U76C | 0.83
U69A C71A U72C | 0.29
U69A C71G U72C U78A | 0.12
U69A G73A A75U U78C | 1.11
U69A G73U U78C C79U U80C | 1.01
U69A U72C U76C | 0.61
U69A U76C U80C | 0.88
U69C A75G U78A | 0.52
U69C A75G U80C | 0.44

Variant | self-cleavage
U69C A75G U80G | 0.55
U69C G70A C71U | 0.18
U69C U74A U78C | 0.74
U69C U74C U78A | 0.91
U69C U74C U78C | 0.61
U69C U76C A77U | 0.88
U69C U76C C81G | 0.73
G70C A77U U78C U80C | 0.19
G70U U72G U80G | 0.35
C71G U72C U76C | 0.4
U72A U78A U80C | 1.13
U72C A75G U78A U80C | 1.04
U72C A75G U78C | 1.14
U72C A75U U78C | 1.13
U72C A77G U78A | 1.2
U72C A77U U80C | 1.35
U72C G73A U78A | 1.29
U72C U74C U80C | 1.27
U72C U78A C79A | 1.3
U72C U78C U80A | 0.94
G73U U78C U80C | 1.29
A75U U76A U80A | 1.2
U76A U78C U80C | 0.7
U76C A77G U80A | 1.04
